According to publication PMC3566084:
Results are given in words; binding and its absence hold for the method and conditions named. In cells and extracts the contact can be indirect. Some results given as binding are weak or reduced against the parent protein; the word gives no strength.

Chains of the proteins cited; added tags and fusions are not shown.
UniProt P62834: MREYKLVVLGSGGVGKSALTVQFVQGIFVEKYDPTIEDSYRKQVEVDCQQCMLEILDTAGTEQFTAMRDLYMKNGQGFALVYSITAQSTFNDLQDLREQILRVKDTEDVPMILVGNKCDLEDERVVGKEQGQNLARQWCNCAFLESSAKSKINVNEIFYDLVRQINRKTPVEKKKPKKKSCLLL
UniProt Q92633: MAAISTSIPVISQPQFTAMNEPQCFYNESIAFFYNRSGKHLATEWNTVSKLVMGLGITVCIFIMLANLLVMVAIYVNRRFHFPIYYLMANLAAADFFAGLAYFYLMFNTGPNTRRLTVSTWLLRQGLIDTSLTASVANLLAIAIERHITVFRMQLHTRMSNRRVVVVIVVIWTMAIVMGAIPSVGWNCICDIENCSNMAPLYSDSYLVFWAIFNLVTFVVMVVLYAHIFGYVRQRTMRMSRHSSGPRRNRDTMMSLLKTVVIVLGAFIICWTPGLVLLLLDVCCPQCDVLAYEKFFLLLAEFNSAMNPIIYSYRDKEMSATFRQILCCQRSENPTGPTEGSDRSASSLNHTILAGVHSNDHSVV
UniProt P46940: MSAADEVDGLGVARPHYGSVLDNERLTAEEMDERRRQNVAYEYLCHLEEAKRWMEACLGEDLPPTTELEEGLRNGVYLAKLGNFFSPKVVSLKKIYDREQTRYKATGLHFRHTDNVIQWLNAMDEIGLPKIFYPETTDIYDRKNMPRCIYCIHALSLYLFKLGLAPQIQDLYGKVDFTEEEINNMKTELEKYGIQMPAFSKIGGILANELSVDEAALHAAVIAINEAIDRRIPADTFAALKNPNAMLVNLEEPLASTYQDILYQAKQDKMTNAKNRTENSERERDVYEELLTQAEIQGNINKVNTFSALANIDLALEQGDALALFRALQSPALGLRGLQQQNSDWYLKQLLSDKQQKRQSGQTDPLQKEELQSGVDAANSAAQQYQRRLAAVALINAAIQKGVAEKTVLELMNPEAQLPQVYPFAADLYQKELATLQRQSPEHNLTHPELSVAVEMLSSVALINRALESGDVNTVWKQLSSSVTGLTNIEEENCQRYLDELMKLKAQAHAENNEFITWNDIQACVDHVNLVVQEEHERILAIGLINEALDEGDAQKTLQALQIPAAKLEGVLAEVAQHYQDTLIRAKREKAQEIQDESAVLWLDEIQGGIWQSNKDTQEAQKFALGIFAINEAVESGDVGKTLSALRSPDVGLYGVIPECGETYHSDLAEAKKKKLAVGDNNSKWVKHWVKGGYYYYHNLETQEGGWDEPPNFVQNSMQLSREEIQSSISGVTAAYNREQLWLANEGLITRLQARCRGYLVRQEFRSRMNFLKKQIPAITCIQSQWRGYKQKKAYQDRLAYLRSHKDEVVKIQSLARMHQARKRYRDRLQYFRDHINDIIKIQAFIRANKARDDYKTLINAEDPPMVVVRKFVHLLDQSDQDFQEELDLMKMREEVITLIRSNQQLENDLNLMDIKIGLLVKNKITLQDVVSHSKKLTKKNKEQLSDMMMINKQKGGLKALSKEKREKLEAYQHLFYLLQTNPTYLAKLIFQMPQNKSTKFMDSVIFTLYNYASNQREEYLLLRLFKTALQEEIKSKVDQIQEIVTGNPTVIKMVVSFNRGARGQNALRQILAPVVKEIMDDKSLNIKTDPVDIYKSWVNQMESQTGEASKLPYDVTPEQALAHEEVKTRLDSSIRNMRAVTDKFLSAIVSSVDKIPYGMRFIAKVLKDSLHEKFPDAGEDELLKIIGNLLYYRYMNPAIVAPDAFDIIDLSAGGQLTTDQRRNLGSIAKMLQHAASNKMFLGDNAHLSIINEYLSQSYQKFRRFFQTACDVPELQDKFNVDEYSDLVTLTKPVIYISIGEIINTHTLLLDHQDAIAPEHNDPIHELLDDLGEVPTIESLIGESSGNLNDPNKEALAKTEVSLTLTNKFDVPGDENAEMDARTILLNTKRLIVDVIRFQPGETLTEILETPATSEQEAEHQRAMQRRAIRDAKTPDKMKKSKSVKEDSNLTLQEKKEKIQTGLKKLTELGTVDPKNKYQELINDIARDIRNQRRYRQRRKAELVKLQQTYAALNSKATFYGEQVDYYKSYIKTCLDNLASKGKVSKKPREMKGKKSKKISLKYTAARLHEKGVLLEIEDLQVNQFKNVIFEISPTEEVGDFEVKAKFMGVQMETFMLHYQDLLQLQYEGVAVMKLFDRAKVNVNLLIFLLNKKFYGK
UniProt P32121: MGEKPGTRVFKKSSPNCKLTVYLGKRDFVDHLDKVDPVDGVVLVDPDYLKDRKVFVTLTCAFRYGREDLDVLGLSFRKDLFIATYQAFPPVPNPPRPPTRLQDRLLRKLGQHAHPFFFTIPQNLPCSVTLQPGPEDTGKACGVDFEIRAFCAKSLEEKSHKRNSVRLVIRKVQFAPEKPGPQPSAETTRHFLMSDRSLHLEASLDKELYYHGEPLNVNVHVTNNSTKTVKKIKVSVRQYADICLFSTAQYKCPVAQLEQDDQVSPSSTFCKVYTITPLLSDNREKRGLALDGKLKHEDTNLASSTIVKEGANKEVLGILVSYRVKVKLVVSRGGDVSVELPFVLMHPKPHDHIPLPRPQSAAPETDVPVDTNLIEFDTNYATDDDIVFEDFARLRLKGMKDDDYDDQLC

Experiments:
RalA = target: T1, RalA (UniProt P11233); test: co-IP; MDA-MB-231 cells, serum-starved 4 h, without or with 10 µM LPA; precipitation with an anti-GFP monoclonal antibody, blot with a rabbit anti-IQGAP1 antibody
T1 sequence: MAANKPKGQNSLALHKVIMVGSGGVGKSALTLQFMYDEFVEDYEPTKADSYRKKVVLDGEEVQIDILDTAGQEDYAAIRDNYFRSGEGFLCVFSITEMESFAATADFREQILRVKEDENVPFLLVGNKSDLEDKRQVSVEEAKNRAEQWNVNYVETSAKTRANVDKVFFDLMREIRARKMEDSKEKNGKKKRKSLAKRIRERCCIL

YFP-Rap1A = YFP-Rap1A (UniProt P62834); test: as above
FLAG-LPA1 = FLAG-LPA1 (UniProt Q92633); test: co-IP; MDA-MB-231 cells stably expressing FLAG-LPA1, serum-starved 4 h, without or with 10 µM LPA (5 to 30 min); precipitation with a mouse anti-FLAG monoclonal antibody, blot for the endogenous partner
[1] = target: IQGAP1 (human (endogenous in MDA-MB-231 and Hs578T)) (UniProt P46940); test: co-IP; endogenous proteins in Hs578T lysates, cells serum-starved 4 h, without or with 10 µM LPA; precipitation with a rabbit anti-Rap1A or rabbit anti-IQGAP1 antibody, blot with a monoclonal anti-β-arrestin2 antibody
[2] = target: IQGAP1 (human (endogenous in MDA-MB-231 and Hs578T)) (UniProt P46940); test: co-IP; endogenous proteins in MDA-MB-231 lysates, cells serum-starved 4 h, without or with 10 µM LPA; precipitation with a rabbit anti-Rap1A or rabbit anti-IQGAP1 antibody, blot with a monoclonal anti-β-arrestin2 antibody

Row | binding (RalA) | binding (YFP-Rap1A) | binding (FLAG-LPA1) | binding [1] | binding [2] | Substance
1 | no binding | binds | binds |  |  | IQGAP1 (from UniProt P46940 1-1657)
2 |  |  |  | binds | binds | β-arrestin2 (from UniProt P32121 1-409)
3 |  |  | binds |  |  | Rap1A (from UniProt P62834 1-184)
